Values marked as one replicate rest on one cluster of the flow cell; about a third of the high ones do not repeat.
Test system: ATP
Assay: switch fluorescence ratio, 500 uM ATP over buffer (Cy3 cluster intensity, sum of 5 cycles each) (fold (ratio)); higher = stronger signal-on switching upon ATP binding; sequences stand for … in TCGTCGGCAGCGTCAGATGTGTATAAGAGACAGTTTTTTTTTTTTTTTTTTTTTTTTT…TC
Settings: aptamer strand: ATP DNA aptamer (quencher-CACCTGGGGGAGTATTGCGGAGGAAGG + anchor), 100 nM annealed; ATP concentration: 500 uM; one replicate
Method in brief: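 Exposure to 500 uM ATP lasted 15 min at 22 °C before imaging, and a selection-buffer image was taken beforehand, for Cy3-labelled switching-strand clusters on a modified Illumina MiSeq flow-cell annealed to 100 nM quencher-labelled ATP aptamer. Five buffer/ATP cycles were run with NaOH stripping and re-annealing between them. The fluorescence ratio per cluster is summed target-cycle over summed buffer-cycle Cy3 intensity, averaged per switch-domain sequence. Clusters outside 100-1000 RFU were excluded.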

Sequence	switch fluorescence ratio
CCGGGGCTT	1.25
CCGGGGTCTT	1.03
CCGGGTCTCA	1.06
CCGGTAATTT	1.01
CCGGTCCGGG	1.03
CCGGTTCTTG	0.982
CCGGTTGC	1.91
CCGGTTTACA	1.07
CCGTACATGG	2.33
CCGTACATTT	1.02
CCGTACTGAT	1.02
CCGTAGACAG	2.02
CCGTAGGTGT	0.978
CCGTATGAGA	1.02
CCGTATTATG	1
CCGTATTCT	1.05
CCGTCCTTG	1.01
CCGTCGACGA	0.965
CCGTCTCAGG	1.33
CCGTCTGCTA	1.67
CCGTCTGGAA	1.04
CCGTCTTTTC	1.11
CCGTGCTAGC	1.79
CCGTGGAGCC	1.01
CCGTGGGTGG	0.967
CCGTGTACTT	1.66

Sequence	switch fluorescence ratio
CCGTGTGCGT	1.04
CCGTTACTAG	1.26
CCGTTCCGA	1.05
CCGTTGGTTG	0.993
CCTAAAACAA	1.06
CCTAAATGGT	1.01
CCTAACAAG	1.01
CCTAACAGGC	1
CCTAATTCCA	0.968
CCTACATTGC	1.88
CCTACCCCT	1.16
CCTACGAAAG	2.88
CCTACGGACT	2.23
CCTACTTACT	1.35
CCTAGAAGTT	1.01
CCTAGCCTGA	1.05
CCTAGCTAAA	1.33
CCTAGGGTGC	2.47
CCTAGGTCCC	1.01
CCTAGGTTCT	0.984
CCTAGTAAAT	1.05
CCTATCTATT	1
CCTATCTTGT	1.01
CCTATTAGTA	1
CCTCAAGGTA	1.99
CCTCACTTGT	1.1

Sequence	switch fluorescence ratio
CCTCAGCGAC	2.21
CCTCATCTGA	1.14
CCTCCTAAGA	3.34
CCTCCTCTGG	2.18
CCTCGAGAA	1.34
CCTCGAGGGA	1.03
CCTCGATGCA	1.18
CCTCGATGCT	1.41
CCTCGCCATT	2.11
CCTCGCTAGT	3.54
CCTCGTGTCC	1.41
CCTCGTTACG	1.09
CCTCTAAGG	1
CCTCTACGGG	1.12
CCTCTCGAG	1.4
CCTCTTGTTT	1.31
CCTGAACAGG	1.03
CCTGAAGGGG	1.03
CCTGAAGTT	1.01
CCTGACACAT	1.14
CCTGAGCAGC	1.78
CCTGAGCGGT	2.09
CCTGAGGAAT	1.13
CCTGATAT	1.52
CCTGCAAAAT	2.31

From the supplement of paper PMC10126150
